Measurements as given in the supplement of paper PMC4604168 (melanoma cell lines).
This is one part of the list. Single values are uncertain, as repeats are few or missing.

Columns and labels:
Assay in all cases: cell count relative to DMSO control; melanoma cells; higher = more viable cells
Details in all cases: library dose: standard library concentration; 72 h
G361 = tested on: G361
IPC-298 = tested on: IPC-298
IST-MEL1 = tested on: IST-MEL1
LB2518-MEL = tested on: LB2518-MEL
LOXIMVI = tested on: LOXIMVI
MEL-HO = tested on: MEL-HO
MZ2-MEL = tested on: MZ2-MEL
MeWo = tested on: MeWo
RPMI7951 = tested on: RPMI7951
RVH-421 = tested on: RVH-421
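Further: cells treated in 1,536-well plates, then fixed and DAPI-stained, with nuclei counted from automated high-throughput microscope images.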

SMILES	cell count (G361)	cell count (IPC-298)	cell count (IST-MEL1)	cell count (LB2518-MEL)	cell count (LOXIMVI)	cell count (MEL-HO)	cell count (MZ2-MEL)	cell count (MeWo)	cell count (RPMI7951)	cell count (RVH-421)
NCC(=O)Nc1ccc(-n2nc(C(F)(F)F)cc2-c2ccc3c(ccc4ccccc43)c2)cc1 + O=C1NC(=O)/C(=C/c2ccc(-c3ccc(F)cc3O)o2)S1 [AS252424] (first compound 5 µM, partner dose 5 µM)	75.2%	52.2%	84.2%	96.3%	75.8%	74.8%	79.6%	87%	76.2%	70.7%
C=CCn1c(=O)c2cnc(Nc3ccc(N4CCN(C)CC4)cc3)nc2n1-c1cccc(C(C)(C)O)n1 + C[C@@H]1CCN(C(=O)CC#N)C[C@@H]1N(C)c1ncnc2[nH]ccc12 [CP690550] (first compound 0.1 µM, partner dose 5 µM)	73.9%	95.5%	90%	66.7%	71.3%	101%	109%	72.2%	66.6%	82.5%
NC(=O)Nc1cc(-c2cccc(F)c2)sc1C(=O)N[C@H]1CCCNC1 + COc1ccc(COc2ccc(Cc3cnc(N)nc3N)cc2OC)cc1 [GW2580] (first compound 0.1 µM, partner dose 5 µM)	81.7%	80.1%	111%	81.6%	78.2%	86.3%	109%	79.3%	31%	113%
Cc1nc(Nc2ncc(C(=O)Nc3c(C)cccc3Cl)s2)cc(N2CCN(CCO)CC2)n1 [dasatanib] + CN(NC(=O)CC(=O)NN(C)C(=S)c1ccccc1)C(=S)c1ccccc1 [STA4783] (first compound 0.02 µM, partner dose 0.03 µM)	35.1%	63.8%	17%	17.2%	12.6%	65.7%	58.5%	14.2%	28.2%	34.8%
CO[C@@H]1[C@H](N(C)C(=O)c2ccccc2)C[C@H]2O[C@]1(C)n1c3ccccc3c3c4c(c5c6ccccc6n2c5c31)C(=O)NC4 [Midostaurin] + COc1ccc(COc2ccc(Cc3cnc(N)nc3N)cc2OC)cc1 [GW2580] (first compound 0.4 µM, partner dose 5 µM)	49.7%	65.6%	84.9%	65.3%	76.3%	72.3%	55.6%	72.2%	43.7%	76.1%
OCCn1cc(-c2cnc3nnn(Cc4ccc5ncccc5c4)c3n2)cn1 + COc1ccc(COc2ccc(Cc3cnc(N)nc3N)cc2OC)cc1 [GW2580] (first compound 5 µM, partner dose 5 µM)	95.8%	97.8%	95.8%	87.9%	104%	91%	95.7%	87.3%	84.2%	96.7%
Cc1nc(Nc2ncc(C(=O)Nc3c(C)cccc3Cl)s2)cc(N2CCN(CCO)CC2)n1 [dasatanib] + COc1cc(Nc2ncc(F)c(Nc3ccc4c(n3)NC(=O)C(C)(C)O4)n2)cc(OC)c1OC [Tamatinib] (first compound 0.02 µM, partner dose 2 µM)	51%	68.5%	37.7%	77.8%	3.13%	58.2%	30.2%	56%	11.6%	58.7%
CO[C@@H]1[C@H](N(C)C(=O)c2ccccc2)C[C@H]2O[C@]1(C)n1c3ccccc3c3c4c(c5c6ccccc6n2c5c31)C(=O)NC4 [Midostaurin] + COc1cc2ncnc(Nc3ccc(Oc4ccccc4)cc3)c2cc1OC [SrcI1] (first compound 0.4 µM, partner dose 10 µM)	42.1%	46.5%	73.9%	64.9%	55.1%	66.5%	31.2%	55.7%	22.6%	69.7%
NC(=O)Nc1cc(-c2cccc(F)c2)sc1C(=O)N[C@H]1CCCNC1 + COc1ccc2c(c1)CCC1C2CCC2(C)C(NCCCCCCN3C(=O)C=CC3=O)CCC12 [U73122] (first compound 0.1 µM, partner dose 2 µM)	90%	104%	105%	113%	96.5%	94.5%	104%	34.3%	47.7%	80.1%
CN(C)S(=O)(=O)c1ccc2c(c1)/C(=C/c1cc3c([nH]1)CCCC3)C(=O)N2 + COc1cc2c(Oc3ccc4[nH]c(C)cc4c3F)ncnc2cc1OCCCN1CCCC1 [cediranib] (first compound 2 µM, partner dose 2 µM)	72.1%	68.3%	64.6%	69.9%	72.9%	79.1%	85.9%	67.5%	34.7%	95.9%
C=CCn1c(=O)c2cnc(Nc3ccc(N4CCN(C)CC4)cc3)nc2n1-c1cccc(C(C)(C)O)n1 + COc1cc2c(Oc3ccc4[nH]c(C)cc4c3F)ncnc2cc1OCCCN1CCCC1 [cediranib] (first compound 0.1 µM, partner dose 2 µM)	75.3%	71%	95.1%	55.5%	59.9%	73.8%	93.7%	59%	45%	70.7%
CO[C@@H]1[C@H](N(C)C(=O)c2ccccc2)C[C@H]2O[C@]1(C)n1c3ccccc3c3c4c(c5c6ccccc6n2c5c31)C(=O)NC4 [Midostaurin] + Cc1cc([N+](=O)[O-])ccc1NS(=O)(=O)c1cc(Cl)ccc1Cl [FH535] (first compound 0.4 µM, partner dose 5 µM)	30.5%	40.7%	42.5%	57.2%	76.5%	51.2%	34.3%	49%	49.6%	52.1%
OCCn1cc(-c2cnc3nnn(Cc4ccc5ncccc5c4)c3n2)cn1 + CC(C)CCN1c2nc(Nc3cc(F)c(O)c(F)c3)ncc2N(C)C(=O)C1C [BID1870] (first compound 5 µM, partner dose 1 µM)	63.3%	80.8%	88.6%	98%	96.8%	88.5%	89%	77.5%	88.4%	79.4%
CN(C)S(=O)(=O)c1ccc2c(c1)/C(=C/c1cc3c([nH]1)CCCC3)C(=O)N2 + COc1ccc(COc2ccc(Cc3cnc(N)nc3N)cc2OC)cc1 [GW2580] (first compound 2 µM, partner dose 5 µM)	62.8%	65.4%	84.1%	73.9%	130%	88.7%	81.7%	83%	50.2%	84.7%
C[C@]1(c2nc3c(C(N)=O)cccc3[nH]2)CCCN1 [Veliparib] + COC(=O)c1sccc1S(=O)(=O)Nc1ccc(Nc2ccccc2)cc1OC [GSK0660] (first compound 7 µM, partner dose 5 µM)	108%	95.2%	93.9%	72.3%	124%	95%	103%	112%	87.6%	70.5%
C=CCn1c(=O)c2cnc(Nc3ccc(N4CCN(C)CC4)cc3)nc2n1-c1cccc(C(C)(C)O)n1 + COc1cc(N2CCC(N3CCN(C)CC3)CC2)ccc1Nc1ncc(Cl)c(Nc2ccccc2S(=O)(=O)C(C)C)n1 [NVP-TAE684] (first compound 0.1 µM, partner dose 0.4 µM)	75%	67.1%	86.1%	59.2%	51.5%	80.9%	77%	58.5%	45.7%	84.8%
C=CCn1c(=O)c2cnc(Nc3ccc(N4CCN(C)CC4)cc3)nc2n1-c1cccc(C(C)(C)O)n1 + N#Cc1c(O)c2c(-c3ccc(-c4ccccc4O)cc3)csc2[nH]c1=O [A769662] (first compound 0.1 µM, partner dose 10 µM)	90.5%	94.2%	119%	65.1%	92.3%	89.6%	99.3%	79.3%	70.8%	87.2%
OCCn1cc(-c2cnc3nnn(Cc4ccc5ncccc5c4)c3n2)cn1 + Cn1cc(/C=C2\C(=O)Nc3cccnc32)c2ccccc21 [GW441756] (first compound 5 µM, partner dose 2 µM)	101%	76%	112%	105%	126%	94.1%	95%	97.6%	113%	106%
CN(C)S(=O)(=O)c1ccc2c(c1)/C(=C/c1cc3c([nH]1)CCCC3)C(=O)N2 + N#Cc1c(O)c2c(-c3ccc(-c4ccccc4O)cc3)csc2[nH]c1=O [A769662] (first compound 2 µM, partner dose 10 µM)	87.4%	93.5%	85.8%	70.7%	129%	86.6%	92%	101%	70.2%	72.5%
Cc1nc(Nc2ncc(C(=O)Nc3c(C)cccc3Cl)s2)cc(N2CCN(CCO)CC2)n1 [dasatanib] + Oc1nc(-c2ccc(C(F)(F)F)cc2)nc2c1CSCC2 [XAV939] (first compound 0.02 µM, partner dose 10 µM)	71.6%	82.5%	60.7%	110%	26.6%	75.2%	51.4%	71.8%	47.8%	77.9%
NC(=O)Nc1cc(-c2cccc(F)c2)sc1C(=O)N[C@H]1CCCNC1 + CCCCCCCCCCCC1=C(O)C(=O)C=C(O)C1=O [Embelin] (first compound 0.1 µM, partner dose 6 µM)	67.5%	63.6%	62.3%	50%	79%	47.5%	89.6%	76.9%	28.3%	52.6%
CN(C)S(=O)(=O)c1ccc2c(c1)/C(=C/c1cc3c([nH]1)CCCC3)C(=O)N2 + Cn1cc(/C=C2\C(=O)Nc3cccnc32)c2ccccc21 [GW441756] (first compound 2 µM, partner dose 2 µM)	64.7%	57.1%	84%	68.6%	125%	81.8%	73.1%	87.1%	79.5%	77.4%
